According to PubChem BioAssay AID504333 (National Center for Advancing Translational Sciences (NCATS), 2011):
“And” between values parts separate entries of the source, which are not always exact repeats. Identical values can stand only once. Out of some 360,000 compounds screened, about 16,000 (4.4%) were called active. The shares of active, inactive and inconclusive entries below differ from those in the screen. Calls come from the whole dose curve; as a rule, active = well fitted inhibition curve with a large enough effect; inconclusive = small, poorly fitted or top-dose-only effect; inactive = no such curve, though single readings can be large or run the other way. Where the call is inconclusive, the potency comes from a doubtful curve fit.

Biological target: Bromodomain adjacent to zinc finger domain protein 2B (Homo sapiens) (UniProt Q9UIF8)
Assay: qHTS Assay for Inhibitors of BAZ2B; note: nearly all actives have a fitted effect of over 60% in size
Conditions: AlphaScreen BAZ2B-H3K14Ac peptide displacement; series mostly up to 114 µM
Method in brief: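 AlphaScreen displacement of biotin-H3(5-23)K14Ac peptide (50 nM final) from BAZ2B (50 nM final) in PBS pH 7.4, 0.01% Tween-20; complex preformed 30 min RT, then compounds (top 110 uM) 30 min RT, beads 20 min dark.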
Potency is the fitted concentration of half-maximal effect; tags give direction and shape of the fitted curve.

Sequence of UniProt Q9UIF8 (Q9UIF8 whole entry, looked up, the tested form may be a part): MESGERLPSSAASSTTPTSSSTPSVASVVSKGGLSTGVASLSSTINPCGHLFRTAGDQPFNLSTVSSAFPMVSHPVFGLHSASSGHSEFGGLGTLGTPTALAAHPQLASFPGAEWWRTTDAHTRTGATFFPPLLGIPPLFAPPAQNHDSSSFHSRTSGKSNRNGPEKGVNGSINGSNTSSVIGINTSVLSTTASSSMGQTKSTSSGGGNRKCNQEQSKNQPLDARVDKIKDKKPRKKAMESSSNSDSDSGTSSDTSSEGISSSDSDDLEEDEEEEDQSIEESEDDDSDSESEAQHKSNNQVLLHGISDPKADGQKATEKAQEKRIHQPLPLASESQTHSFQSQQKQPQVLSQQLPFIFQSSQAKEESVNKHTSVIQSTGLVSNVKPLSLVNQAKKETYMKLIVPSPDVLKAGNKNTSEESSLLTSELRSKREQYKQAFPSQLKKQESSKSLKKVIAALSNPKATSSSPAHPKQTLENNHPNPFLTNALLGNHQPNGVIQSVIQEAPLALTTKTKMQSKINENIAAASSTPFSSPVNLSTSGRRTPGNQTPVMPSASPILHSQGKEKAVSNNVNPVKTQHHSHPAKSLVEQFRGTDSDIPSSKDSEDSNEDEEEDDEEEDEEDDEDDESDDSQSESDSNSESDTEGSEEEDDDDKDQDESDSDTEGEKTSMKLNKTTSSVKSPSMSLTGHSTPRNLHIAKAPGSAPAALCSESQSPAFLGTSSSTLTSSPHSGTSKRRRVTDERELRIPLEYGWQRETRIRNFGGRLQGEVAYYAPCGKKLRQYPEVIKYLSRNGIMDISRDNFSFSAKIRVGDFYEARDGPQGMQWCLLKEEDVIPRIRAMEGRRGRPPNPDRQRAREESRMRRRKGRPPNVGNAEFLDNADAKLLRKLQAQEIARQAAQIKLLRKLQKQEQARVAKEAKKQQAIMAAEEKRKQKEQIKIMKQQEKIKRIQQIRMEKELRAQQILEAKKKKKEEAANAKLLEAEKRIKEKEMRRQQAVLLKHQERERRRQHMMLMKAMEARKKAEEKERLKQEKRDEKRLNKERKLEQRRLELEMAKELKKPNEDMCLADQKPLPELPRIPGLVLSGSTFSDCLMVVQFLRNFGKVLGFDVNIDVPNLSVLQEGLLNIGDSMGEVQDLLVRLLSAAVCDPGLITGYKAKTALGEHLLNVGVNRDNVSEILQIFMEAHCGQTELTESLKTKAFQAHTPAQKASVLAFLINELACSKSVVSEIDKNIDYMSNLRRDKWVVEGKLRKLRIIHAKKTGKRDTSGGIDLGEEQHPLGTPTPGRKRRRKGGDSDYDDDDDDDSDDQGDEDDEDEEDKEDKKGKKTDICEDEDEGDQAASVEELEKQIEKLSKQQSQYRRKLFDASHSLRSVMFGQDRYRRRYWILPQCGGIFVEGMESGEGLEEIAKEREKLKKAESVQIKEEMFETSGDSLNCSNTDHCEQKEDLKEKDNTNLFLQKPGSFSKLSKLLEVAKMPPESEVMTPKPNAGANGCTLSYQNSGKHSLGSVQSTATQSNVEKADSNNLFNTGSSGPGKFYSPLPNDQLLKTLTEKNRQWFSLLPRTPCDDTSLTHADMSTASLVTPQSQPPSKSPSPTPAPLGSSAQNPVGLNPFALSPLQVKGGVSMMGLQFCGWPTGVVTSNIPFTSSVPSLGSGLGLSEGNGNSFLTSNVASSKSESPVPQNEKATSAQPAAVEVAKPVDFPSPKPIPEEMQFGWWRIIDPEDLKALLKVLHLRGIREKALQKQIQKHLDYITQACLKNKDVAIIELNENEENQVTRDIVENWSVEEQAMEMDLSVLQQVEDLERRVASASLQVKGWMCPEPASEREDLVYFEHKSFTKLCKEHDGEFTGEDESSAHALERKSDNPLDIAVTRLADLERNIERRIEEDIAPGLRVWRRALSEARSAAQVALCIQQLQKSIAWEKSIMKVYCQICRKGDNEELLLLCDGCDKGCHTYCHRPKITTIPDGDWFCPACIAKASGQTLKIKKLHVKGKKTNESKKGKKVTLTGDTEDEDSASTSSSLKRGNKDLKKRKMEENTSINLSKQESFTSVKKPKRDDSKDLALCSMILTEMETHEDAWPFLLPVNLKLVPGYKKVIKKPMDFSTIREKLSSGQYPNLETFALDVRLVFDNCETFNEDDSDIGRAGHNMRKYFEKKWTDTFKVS

Row | SMILES | Potency
1 | CN(C)S(=O)(=O)c1ccc(NC(=O)CN2CCc3ccccc32)cc1 | inconclusive: 79.4 µM [inhibitor, single point]
2 | COCCCN(Cc1ccco1)C(=O)c1cc2c(s1)-c1ccc(Cl)cc1S(=O)(=O)C2 | inactive
3 | COc1ccc(C(=O)Nc2ccc(Nc3ccccc3)cc2)cc1[N+](=O)[O-] | inconclusive: 31.6 µM [inhibitor, full curve]
4 | Cc1ccc2c(CC(=O)Nc3ccc(S(=O)(=O)N4CCCCC4)cc3)coc2c1 | inconclusive: 79.4 µM [inhibitor, single point]
5 | Cc1[nH][nH]c(=O)c1N=Nc1ccc(Cl)cc1 | inactive
6 | NC(=O)c1ccsc1NC(=O)COC(=O)Cc1n[nH]c(=O)c2ccccc12 | inconclusive: 79.4 µM [inhibitor, single point]
7 | CC(c1ccco1)N(C(=O)COc1ccccc1[N+](=O)[O-])c1ccccn1 (stereo not given) | inconclusive: 89.1 µM [inhibitor, single point]
8 | Cc1ccc2[nH]c(=O)c(CN(Cc3ccccc3)Cc3nnnn3C3CCCC3)cc2c1 | inconclusive: 44.7 µM [inhibitor, partial curve]
9 | Oc1c(C(c2ccccc2F)N2CCN(Cc3ccccc3)CC2)sc2nc(-c3ccco3)nn12 (stereo not given) | inconclusive: 89.1 µM [inhibitor, single point]
10 | O=C(O)c1ccccc1NS(=O)(=O)c1ccc2c(c1)OCCO2 | inconclusive: 79.4 µM [inhibitor, partial curve]
11 | CC1=NN(c2ccccc2)C(=O)/C1=C\c1cc(C)n(-c2ccccc2)c1C | inconclusive: 3.55 µM [inhibitor, full curve]
12 | COc1ccc(OC)c(C2C3=C(CC(C)(C)CC3=O)Nc3nnnn32)c1 (stereo not given) | inactive
13 | CN(C)c1ccc(C#Cc2ccc3cc(CCO)oc(=O)c3c2)cc1 | inconclusive: 89.1 µM [inhibitor, single point]
14 | Cc1cc(Nc2ccc(N3CCOCC3)cc2)c2cccc(C)c2n1 | inconclusive: 79.4 µM [inhibitor, single point]
15 | O=C(NCCN=C1NS(=O)(=O)c2ccccc21)c1ccc2nccnc2c1 | inconclusive: 89.1 µM [inhibitor, single point]
16 | COc1ccc(CCn2c(C)cc(C(=O)CSc3nnc(N)s3)c2C)cc1 | inconclusive: 28.2 µM [inhibitor, full curve, poor fit]
17 | Cc1ccc2c(c1)C(O)(c1c(C)[nH]c3ccccc13)C(=O)N2 (stereo not given) | inconclusive: 44.7 µM [inhibitor, partial curve]
18 | Clc1ccc(-c2ncc3ccccn23)cc1 | inconclusive: 44.7 µM [inhibitor, partial curve]
19 | CCCS(=O)(=O)N1CCN(C(=O)c2ccco2)CC1 | inactive
20 | Cc1ccc(NC(=O)Cn2c(=O)n(CCC(=O)NCc3ccccc3Cl)c(=O)c3ccccc32)cc1 | inconclusive: 79.4 µM [inhibitor, single point]
21 | Cc1ccc(-c2nnc3ccccc3c2C(=O)Nc2ccccc2F)cc1 | inactive
22 | CCc1nn2c(N3CCOCC3)cc(C)nc2c1-c1ccccc1 | inactive
23 | O=c1cc(-c2ccccc2)[nH]c2[nH]n(-c3ccccc3)c(=O)c12 | inconclusive: 44.7 µM [inhibitor, partial curve]
24 | O=C(NC1CCCCC1)c1cccnc1Sc1ccccc1 | inactive

Row | SMILES | Potency
25 | Oc1ccc2ccccc2c1C=NC12CN3CCN(CN(C3)C1)C2 | inconclusive: 50.1 µM [inhibitor, partial curve]
26 | CC(=O)Nc1nc2n(n1)C(c1ccccc1)C=C(c1ccccc1)N2 (stereo not given) | active: 79.4 µM
27 | CCCOc1cccc(-c2nn(-c3ccccc3)cc2/C=C(\C#N)C(=O)NCCCn2ccnc2)c1 | inconclusive: 28.2 µM [inhibitor, full curve]
28 | CCc1ccc(S(=O)(=O)/N=C2\C=C(Nc3ccc(C(=O)O)cc3)C(=O)c3ccccc32)cc1 | active: 7.94 µM
29 | O=C(NCCc1ccccc1)C(=O)NCC(c1ccc2c(c1)OCO2)N1CCOCC1 (stereo not given) | inactive
30 | CCOc1ccc(NC(=O)CN(C)C(=O)c2cn(-c3ccccc3)nc2-c2cccs2)cc1OCC | inconclusive: 28.2 µM [inhibitor, full curve]
31 | CCCC1=NN2C(=N)/C(=C\c3cc(C)n(-c4cc(C)cc(C)c4)c3C)C(=O)N=C2S1 | inactive
32 | COC1=C(Nc2ccc(O)cc2)C(=O)c2ccccc2C1=O | active: 39.8 µM
33 | Cc1ccc(-n2cc(CNC(C)Cn3cncn3)c(-c3ccc(F)cc3)n2)cc1 (stereo not given) | inconclusive: 79.4 µM [inhibitor, single point]
34 | CNC(C)C(=O)NC(C(=O)N1CCCC1C(=O)NNc1ccccc1)C(C)C (stereo not given) | inconclusive: 89.1 µM [inhibitor, single point]
35 | O=C(CCc1nc2sc3c(c2c(=O)[nH]1)CCCC3)N1CCN(c2ccccc2)CC1 | active: 56.2 µM
36 | COc1cccc(CNc2ccc(Br)cn2)c1O | inconclusive: 79.4 µM [inhibitor, single point]
37 | CC1CCN(S(=O)(=O)c2ccc3c(ccn3CCC(=O)NCc3ccc(N(C)C)cc3)c2)CC1 | active: 28.2 µM
38 | COc1ccc(NC(=O)CCS(=O)(=O)c2ccc(Br)s2)cc1 | inconclusive: 70.8 µM [inhibitor, partial curve]
39 | Cc1cc(N2CCN(c3nc(-c4ccccc4)cs3)CC2)c2ccccc2n1 | inconclusive: 35.5 µM [inhibitor, partial curve]
40 | CC(=O)N1CCCC1c1nc2ccccc2n1Cc1ccccc1C (stereo not given) | inactive
41 | CCCc1cc(=O)oc2cc(OCC(=O)Nc3ccc(S(N)(=O)=O)cc3)ccc12 | active: 44.7 µM
42 | CCc1ccc(NC(=O)CC2C(=O)N(c3cccc(C)c3)C(=O)N2Cc2ccco2)cc1 (stereo not given) | inactive
43 | COc1ccc(Cn2ccnc2SCC(=O)Nc2ccccc2)cc1 | inconclusive: 44.7 µM [inhibitor, partial curve]
44 | Cc1cc(C(C)(C)C)ccc1OCCN1CCCC1 | inconclusive: 28.2 µM [inhibitor, single point]
45 | Cc1ccc(OCC(O)CN2CCN(Cc3ccc4c(c3)OCO4)CC2)c(C)c1 (stereo not given) | inconclusive: 89.1 µM [inhibitor, single point]
46 | Cc1cc(/C=C2/NC(=O)N(c3ccccc3)C2=O)c(C)n1C(C)C | inconclusive: 39.8 µM [inhibitor, partial curve]
47 | C=CCNc1oc(-c2cccc3ccccc23)nc1C#N | inconclusive: 20 µM [inhibitor, full curve]
48 | O=C(N/N=C/c1ccc(N2CCOCC2)o1)c1cccc(F)c1 | inactive

Row | SMILES | Potency
49 | CC1(C)CC(=O)C2=C(C1)Nc1cc3c(cc1C2c1ccc2c(c1)OCO2)OCO3 (stereo not given) | inconclusive: 89.1 µM [inhibitor, single point]
50 | CC(=O)OC1COC(n2c(O)c(N=NC(N)=S)c3ccccc32)C(OC(C)=O)C1OC(C)=O (stereo not given) | inconclusive: 100 µM [inhibitor, single point]
51 | Cc1nc2ccccn2c1C(=O)N/N=C/c1ccccc1 | inactive
52 | COCCCNC(=S)N/N=C/c1ccc2ccccc2c1 | inconclusive: 50.1 µM [inhibitor, partial curve]
53 | Cc1cc2c(cc1C)C(=O)NC(C)(C)C2 | inconclusive: 89.1 µM [inhibitor, single point]
54 | Cc1ccc(C)c(N2CCN(C(=O)c3ccc4c(=O)n5c(nc4c3)CCCCC5)CC2)c1 | inconclusive: 50.1 µM [inhibitor, partial curve]
55 | CN(c1ccccc1)S(=O)(=O)c1ccc(Cl)c(C(=O)Nc2nn[nH]n2)c1 | inconclusive: 79.4 µM [inhibitor, single point]
56 | CCCCn1c(NCc2ccc(N(C)C)cc2)nc2ccccc21 | active: 31.6 µM and active: 39.8 µM
57 | COCCCNc1nc2c(c(=O)n(Cc3ccc(Cl)cc3)c(=O)n2C)n1C | inconclusive: 56.2 µM [inhibitor, partial curve]
58 | CN(C)CCCOc1ccc(C(C)(C)c2ccccc2)cc1 | active: 50.1 µM
59 | COc1ccc(CNC(=O)COCc2cc(-c3cccs3)on2)cc1 | inactive
60 | COc1ccc(CNc2nc3ccc(C)cc3s2)c(OC)c1OC | inconclusive: 100 µM [inhibitor, single point]
61 | O=C(O)Cn1ccc2cc(S(=O)(=O)N3CCCCCC3)ccc21 | inactive
62 | O=[N+]([O-])c1ccccc1/C=N/n1c(-c2ccccc2)n[nH]c1=S | inconclusive: 79.4 µM [inhibitor, single point]
63 | O=C(Nc1ccc(Cl)c(C(F)(F)F)c1)C1CCN(S(=O)(=O)c2cccc3nonc23)CC1 | inactive
64 | COCC1CCN(Cc2cn(Cc3ccccc3)nc2-c2cc3ccccc3o2)CC1 | active: 56.2 µM
65 | CCOC(=O)NNC(=O)CCn1c2c(c3ccccc31)CCCC2 | inconclusive: 70.8 µM [inhibitor, single point]
66 | COc1ccc(/C=C/c2nc(S(=O)(=O)c3ccccc3)c(N(C)C)o2)cc1OC | inconclusive: 79.4 µM [inhibitor, single point]
67 | O=C(NC1CCCCC1)C1CCN(c2nccs2)CC1 | inactive
68 | COC(=O)c1ccc2c(c1)C(C)(C)C(/C=C/c1ccccc1O)=[N+]2C | active: 8.91 µM
69 | CC(C)S(=O)(=O)c1csc(NC(=O)Nc2cc(Cl)ccc2Cl)c1Cl | inconclusive: 79.4 µM [inhibitor, single point]
70 | CC(C)C1C(C#N)=C(N)Oc2n[nH]c(-c3ccc4ccccc4c3)c21 (stereo not given) | inconclusive: 50.1 µM [inhibitor, partial curve]
